Measurements as given in article PMC4336329 (PLoS ONE, 2015).
In all, about 310,000 compounds went through this assay and about 2,200 (0.71%) showed an effect of 50% or more. Effects have a minus sign here. The list shows a part of the results.

The compounds below were run against human ether-à-go-go-related gene (hERG) potassium channel (human, UniProt Q12809) (assay: primary screen, population patch clamp on CHO cells stably expressing hERG).
Sequence of human ether-à-go-go-related gene (hERG) potassium channel (Q12809 whole entry, looked up): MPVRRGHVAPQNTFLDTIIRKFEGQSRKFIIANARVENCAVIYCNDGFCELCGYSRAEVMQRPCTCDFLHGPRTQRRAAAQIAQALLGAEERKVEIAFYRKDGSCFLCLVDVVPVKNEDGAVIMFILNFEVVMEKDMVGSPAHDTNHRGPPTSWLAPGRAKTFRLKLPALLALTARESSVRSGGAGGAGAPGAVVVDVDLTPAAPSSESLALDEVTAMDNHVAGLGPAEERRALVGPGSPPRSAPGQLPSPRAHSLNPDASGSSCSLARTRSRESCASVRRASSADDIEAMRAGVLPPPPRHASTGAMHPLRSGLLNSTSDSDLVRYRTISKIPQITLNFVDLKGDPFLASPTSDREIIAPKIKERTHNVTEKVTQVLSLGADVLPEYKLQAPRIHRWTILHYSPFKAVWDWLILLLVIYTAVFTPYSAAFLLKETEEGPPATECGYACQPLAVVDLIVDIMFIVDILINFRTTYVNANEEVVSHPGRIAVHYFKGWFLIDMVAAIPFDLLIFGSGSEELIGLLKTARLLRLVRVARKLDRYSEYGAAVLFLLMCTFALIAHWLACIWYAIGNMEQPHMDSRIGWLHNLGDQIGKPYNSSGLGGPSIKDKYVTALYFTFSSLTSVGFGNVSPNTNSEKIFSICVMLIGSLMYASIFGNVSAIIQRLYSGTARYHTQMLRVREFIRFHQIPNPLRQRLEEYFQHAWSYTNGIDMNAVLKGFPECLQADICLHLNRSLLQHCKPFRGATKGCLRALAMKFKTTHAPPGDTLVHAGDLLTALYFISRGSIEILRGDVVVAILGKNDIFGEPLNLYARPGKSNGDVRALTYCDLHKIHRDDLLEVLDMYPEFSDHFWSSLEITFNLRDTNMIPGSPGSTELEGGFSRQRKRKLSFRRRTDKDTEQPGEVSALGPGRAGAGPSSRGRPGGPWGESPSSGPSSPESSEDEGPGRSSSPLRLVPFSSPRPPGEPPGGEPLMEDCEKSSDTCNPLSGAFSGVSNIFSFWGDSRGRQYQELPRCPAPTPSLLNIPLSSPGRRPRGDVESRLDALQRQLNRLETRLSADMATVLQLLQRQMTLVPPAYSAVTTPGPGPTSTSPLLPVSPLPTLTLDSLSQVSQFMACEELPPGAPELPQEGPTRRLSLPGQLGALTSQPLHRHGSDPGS

SMILES	hERG current change (%, negative = inhibition) at 1uM [%]
COc1cccc(CNC(=O)C2Cc3ccccc3CN2C(C)=O)c1 (centres unmarked)	8.98
CCC/C(=N\NC(=O)c1csc(C)c1C)c1cccs1	2.45
O=P(Cc1cc(Br)cc(Br)c1OCCO)(c1ccccc1)c1ccccc1	7.44
Cc1ccc(S(=O)(=O)NC(=O)NC(C)c2ccc(F)cc2)cc1 (centres unmarked)	17.9
CCN1C(=O)[C@H]2[C@@H](c3ccc(-c4cccc(Cl)c4)cc3)N3CCCC[C@@]3(C(=O)OC)[C@H]2C1=O.O=C(O)C(F)(F)F	5.31
C[C@@H]1CC[C@@]2(NC1)O[C@H]1C[C@H]3[C@@H]4CC=C5C[C@@H](O)CC[C@]5(C)[C@H]4CC[C@]3(C)[C@H]1[C@@H]2C	18.1
CC1CCCCN1C(=O)CCc1nnc(Cc2c[nH]c3ccccc23)o1 (centres unmarked)	8.2
CCOc1ccc(C(C(=O)NC2CCCCC2)N(C(=O)c2ccccn2)c2cccnc2)cc1 (centres unmarked)	-0.986
CC(=O)NS(=O)(=O)c1ccc(NC(=S)NC(=O)COc2ccccc2C)cc1	7.43
Cc1ccc(Cl)cc1NS(=O)(=O)c1ccc(-n2cccn2)cc1	10.1
CCN(C(=O)CSc1nc2ccccc2c(=O)n1CCOC)C1CCS(=O)(=O)C1 (centres unmarked)	-0.208
C=C1c2cc(OC)ccc2NC(=O)N1CC	0.357
COc1ccc(C(=O)Nc2c(N)nc(SCC(=O)N3CCC(C)CC3)[nH]c2=O)cc1	7.9
Cc1ccc(S(=O)(=O)N2CCC(C(=O)NCCc3ccc(S(N)(=O)=O)cc3)CC2)cc1	10.7
CCC(=O)N1CCc2cc(Br)cc(S(=O)(=O)CCC(=O)NCCOC)c21	17
Cc1ccc(NC(=O)c2cccc(S(=O)(=O)NCc3ccccc3)c2)nc1	0.799
O=C(COc1ccc(Br)cc1)Nc1ccc(S(=O)(=O)Nc2ccccn2)cc1	-1.23
CCCOc1ccc2nc(C)c(CCC)c(SC(=N)N)c2c1.Cl	13.7
CC(OC(=O)CNC(=O)c1ccc2ccccc2c1)C(=O)NC1CCCCC1C (centres unmarked)	6.58
CCOC(=O)c1[nH]c2ccc(Cl)cc2c1NC(=O)/C=C/c1ccc2c(c1)OCO2	2.8
Cc1cccc(C(=O)N2CCC(=O)N(C(COCc3cccc(C(F)(F)F)c3)Cc3ccccc3)CC2)c1 (centres unmarked)	7.18
CCn1c2ccccc2c2cc(/C=N/n3c(C)nnc3C)ccc21	1.71

SMILES	hERG current change (%, negative = inhibition) at 1uM [%]
CN(C)c1ccc(CNC(=O)CN2C(=O)COc3ccc(S(=O)(=O)N4CCCC4)cc32)cc1	13.7
Cc1c(NS(=O)(=O)c2ccc3[nH]c(=O)[nH]c3c2)c(=O)n(-c2ccccc2)n1C	4.73
CCN1CCc2c(C#N)c(NCc3ccccc3)nc(NCCO)c2C1	-22.3
O=C(OCc1nc2ccccc2s1)c1ccc(Br)o1	13.7
O=C(CCC(=O)N1CCN(c2cccc(Cl)c2)CC1)c1cccs1	6.22
O=c1[nH]c2cccnc2n1Cc1ccco1	-0.139
CC(C)c1ccccc1NC(=O)COC(=O)Cc1cccc(C(F)(F)F)c1	11.2
CCN(C=NC1=NN(c2cccc(C(F)(F)F)c2)CC1)CC	-2.46
O=[N+]([O-])c1ccccc1OCCCN1CCOCC1	10.6
Cc1cccc(NC(=S)N2CCC(NC(=O)c3ccco3)CC2)c1	11.9
O=C(NCC(c1cccs1)N1CCOCC1)c1cn(-c2ccccc2)nc1-c1ccccc1 (centres unmarked)	-0.149
CCOc1ccc(NC(=O)Cn2nnc(C(=O)NCCc3ccc(OC)c(OC)c3)c2N)cc1	4.63
CC(=O)/C(N=Nc1cc(C)ccc1O)=C(\C)O	10.6
CC1CCN(c2ccc(C(=O)O)cc2)CC1	9.84
COc1cc(NC(=O)c2ccccc2C)c(OC)cc1NC(=O)CN1CCOCC1	5.72
Cc1occc1C(=O)NC1CCCN(Cc2ccc(CC(C)C)cc2)C1 (centres unmarked)	6.64
COc1cccc(OC)c1C(=O)NCCOc1cc(C)cc(C)c1	11.7
O=C(CSc1nnc(Cc2ccccc2)n1Cc1ccco1)NC12CC3CC(CC(C3)C1)C2	-7.14
Cn1c(/C=N/Nc2nc3ccccc3[nH]2)nc2ccccc21	6.83
CC(=O)OC[C@]12CCC(C)=C[C@H]1O[C@@H]1[C@H](O)[C@@H](OC(C)=O)[C@@]2(C)[C@]12CO2	6.99
O=C(CSc1ccc(-c2cccnc2)nn1)N1CCCc2ccccc21	0.142
Cc1ccc(OCCNC(=O)c2ccccc2N)cc1	12.1

SMILES	hERG current change (%, negative = inhibition) at 1uM [%]
O=C1NCCN1CCNS(=O)(=O)c1cc(C(F)(F)F)cc(C(F)(F)F)c1	13.2
CC1CC(C)CN(C(=O)/C(=C\c2ccccc2)c2ccccc2)C1 (centres unmarked)	-4.52
CCOC(=O)c1[nH]c2c(c1-c1ccc(OC)cc1)C(=O)CC(c1ccc(OC)c(OC)c1)C2 (centres unmarked)	1.47
O=C(CSCc1ccc(Cl)cc1)Nc1ccc(S(=O)(=O)N2CCCCCC2)cc1	9.01
CN1C=CC=C/C1=C1\SC(=S)N(N)C1=O	6
O=C(Nc1cccc(Cl)c1)NC1CC2CCC1C2 (centres unmarked)	15.2
COC(=O)CC1(Cc2ccccc2)C(=O)NC(=O)NC1=O	18.4
CSc1ccc(-c2c(C#N)c(N)nc3c2c(C)nn3-c2ccccc2)cc1	5.53
COc1ccc(OCC(=O)Nc2ccccc2-c2ccccc2)cc1	13.3
COc1ccc(OCCN2CCOCC2)cc1	20.7
O=C(O)c1ccc(-n2nncc2-c2ccco2)cc1	14.1
CCn1c(=O)cc(OCC(=O)NCc2cccnc2)c2ccccc21	7.58
Cl.O=C(O)CCN1CCc2ccccc2C1c1cccs1 (centres unmarked)	19.9
COC(C(=O)Nc1ccnn1C1CCN(Cc2ccc(Cl)s2)CC1)c1ccccc1 (centres unmarked)	6.73
CCOc1nc(C)ccc1-c1noc(-c2cccnc2)n1	17.8
CN(C)c1ccc(C(=O)N2CCCC(CCC(=O)N3CCN(c4ccccn4)CC3)C2)cc1 (centres unmarked)	13.8
COc1cccc(C2=NOC(C(=O)Nc3cccc(C(C)=O)c3)C2)c1OC (centres unmarked)	3.22
CCC1CCCCN1CCCNC(=O)c1ccc(CS(=O)(=O)Cc2ccccc2F)o1 (centres unmarked)	12.6
C/C(=C\C(=O)c1ccc(Cl)cc1)NCc1ccc2c(c1)OCO2	1.71
C[C@]12CC[C@@H]3c4cc(O)c(O)cc4CC[C@H]3[C@@H]1CC[C@@H]2O	24.1
Cc1cc(C)c(NC(=O)Cn2nnc(C(=O)NCc3ccco3)c2N)c(C)c1	11.9
COC1=C(Nc2ccccc2)C(=O)c2ccccc2C1=O	3.25

SMILES	hERG current change (%, negative = inhibition) at 1uM [%]
CCOc1ccc(NC(=O)CSc2nc(O)c(C)c(=O)n2-c2ccc(F)cc2)cc1	7.42
CC(C)Cn1[nH]c2c3c(ccc2c1=O)C(=O)c1ccccc1C3=O	6.03
COc1ccc(CCNC(=O)COC(=O)Cc2cc(OC)c(OC)c(OC)c2)cc1	6.26
COc1cccc2cc(C(=O)C3=C(O)C(=O)N(CCN4CCOCC4)C3c3ccc(C)o3)oc12 (centres unmarked)	9.09
CCOC(=O)c1ccc(-n2cccc2/C=C2\NC(=O)NC2=O)cc1	14.6
CN1CCN(c2ccccc2/C=C2/C(=O)Nc3ccccc32)CC1	11.5
O=C(c1[nH]ncc1-c1ccccc1)C1CO1 (centres unmarked)	14.4
Cc1ccc(S(=O)(=O)Nc2ccc(NC(=O)c3cccnc3)cc2)cc1	2.65
O=C(CCc1ccccc1)N/N=C/c1cc(Br)ccc1O	15.6
NC1=NC[C@H](Cc2ccc(O)cc2)N1CCc1cccc2ccccc12	10.7
CCOC(CNC(=O)c1ccc2nc(N3CCC(C)CC3)sc2c1)OCC	14.5
CCCn1nc(NC(=O)c2cccs2)c2cc3cc(OC)ccc3nc21	4.24
O=C(O)CCC(=O)N1CCc2cc(S(=O)(=O)N(CCc3ccccc3)Cc3ccccc3)ccc21	49.1
Br.COc1ccc(OC)c(N2Cc3ccccc3C2=N)c1	-14.8
Cc1ccc(NC(=O)C(=O)C2C(=O)Nc3ccccc32)cc1 (centres unmarked)	9.88
Cc1cc(C)c(NC(=O)CN(C)C(=O)C2CC(=O)N(c3cccc4ccccc34)C2)c(C)c1 (centres unmarked)	0.415
CN1CCN(c2nc3c(c(=O)[nH]c(=O)n3C)n2CCCSc2nnnn2-c2ccccc2)CC1	-11.9
COc1ccc(CN2CCCCC2c2cccnc2)c(OC)c1C (centres unmarked)	15.7
O=C(OCc1nc2scc(-c3ccccc3)c2c(=O)[nH]1)c1cc([N+](=O)[O-])ccc1Cl	6.51
O=C(c1ccc(COc2ccccc2Br)o1)N1N=C(C(F)F)CC1(O)C(F)F (centres unmarked)	13.3
